Measured values from PubChem BioAssay AID1508623 (National Center for Advancing Translational Sciences (NCATS), 2021).
The campaign covered roughly 48,000 compounds. About 450 (0.94%) were called active. Another 19% or so got no clear call; they are omitted. The call rests on the fitted dose curve; in most records, active means well fitted inhibition curve with a large enough effect; inconclusive means small, poorly fitted or top-dose-only effect; inactive means no such curve, though single readings can be large or run the other way. The list shows a part of the results.

Experiment: Primary qHTS for Identification of Small Molecule Inhibitors of Huntingtin Promoter Activity; further: nearly all actives have a fitted effect of over 50% in size
Conditions: HEK293 HTT promoter firefly luciferase reporter (activity 0% = vehicle and -100% = no light), 24 h; series mostly up to 57.5 µM; activity change, negative = inhibition: at the top concentration
In short: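 Luminescence was read after Dual-Glo reagent and a 10 min room-temperature incubation. Values were normalized to vehicle (0% activity) and zero RLU (-100% activity). Reporter HEK293 cells had been exposed to compounds (up to 57.5 uM final) for 24 h.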
Potency means the concentration at half of the fitted maximal effect.

Activity change, negative = inhibition, inactive:
COc1cccc(NC(=O)c2oc3ccccc3c2NC(=O)c2ccc(F)c(F)c2)c1 1.23%
Cc1ccc(Cl)cc1NC(=O)C1CCCN(S(=O)(=O)c2cccc3cccnc23)C1 (configuration not stated) -32.5%
CCC(=O)N1CCc2cc(Br)cc(S(=O)(=O)N3CCCC(C(=O)Nc4cccc(C)c4C)C3)c21 (configuration not stated) -16.2%
Cc1ccccc1NC(=O)c1c(NC(=O)c2ccco2)sc2c1CCC(C(C)(C)C)C2 (configuration not stated) -14.5%
COc1ccccc1CNC(=O)CSc1nc2nc(C)c(Cc3ccccc3Cl)c(C)n2n1 -23.1%
CC(=O)[C@@]1(O)CC[C@H]2[C@@H]3C[C@H](C)C4=CC(=O)CC[C@]4(C)[C@H]3CC[C@@]21C -11.8%
CC(CNC(=O)CN1C(=O)COc2ccc(S(=O)(=O)N3CCCCCC3)cc21)c1ccccc1 (configuration not stated) -24.3%
CCCCNC(=O)c1nn(-c2ccc(C)cc2)c(=O)n(C)c1=O 0.136%
CCOC(=O)c1c(S(=O)(=O)N2CCCC(C(=O)Nc3cccc(C#N)c3)C2)c(C)n(C)c1C (configuration not stated) -19.6%
Cc1ccccc1CNC(=O)c1cccc(NC(=O)N2CCSc3ncccc32)c1 -35.5%
CC(Oc1ccccc1)C(=O)Nc1ccc(OCc2cc(=O)n3ccsc3n2)cc1 (configuration not stated) 16.9%
NS(=O)(=O)c1ccc(CCNC(=O)c2ccc3nc(CCc4ccccc4)oc3c2)cc1 0.106%
Cc1cc2c(cc1S(=O)(=O)N(C)CC(=O)Nc1ccc(C#N)cc1)OCC(=O)N2 -18.9%
CCOC(=O)c1c(S(=O)(=O)NCC(=O)Nc2ccc(C)c(N(C)C)c2)c(C)n(C)c1C 7.38%
Cn1c(=O)c2c(SCC(=O)NCc3ccco3)nc(-c3cccc(F)c3)nc2n(C)c1=O -10.3%
Cc1ccc(S(=O)(=O)c2cn(CC(=O)Nc3ccccc3C)c3cc4c(cc3c2=O)OCO4)cc1 -11.4%
CCOc1ccc(CC(=O)Nc2c(C(=O)Nc3ccc(OC)cc3OC)oc3ccccc23)cc1 -11.1%
C[C@H](N)[C@H](O)c1cccc(O)c1 8.77%
COc1ccc(-c2nc3cc(C)ccn3c2NC(=O)c2ccc(F)cc2)cc1 24.1%
Cc1nc(NC(=O)N2CCC[C@@H]2C(N)=O)sc1-c1csc(C(C)(C)C)n1 -4.65%
Cc1cccc(N2CCN(C(=O)CN3C(=O)COc4ccc(S(=O)(=O)N5CCC(C)CC5)cc43)CC2C)c1 (configuration not stated) -12.3%
CCOc1ccc(CNC(=O)c2cnc3sc(N4CCOCC4)nn3c2=O)cc1OC -7.59%
COc1ccccc1NC(=O)CSc1nc2nccnc2c(=O)n1CCc1c[nH]c2ccccc12 -16.8%
Cc1cccn2c(Nc3ccccc3)c(-c3cccs3)nc12 -17%
CCN(CC)CCNC(=O)CSc1nc2nc(C)c(Cc3ccccc3)c(C)n2n1 -6.56%
CN=C(NC#N)Nc1ccc(C2=NNC(=O)CC2C)cc1 (configuration not stated) 6.25%
CCOc1ccccc1NC(=O)CCn1cnnn1 -8.17%
Cc1ccccc1CNc1nc(N(C)C)nc2c1cnn2C -24.5%
Cc1ccc(NC(=O)C2CCN(S(=O)(=O)c3ccc4[nH]c(=O)ccc4c3)CC2)cc1C -9.45%
Cn1c(=NC(=O)c2ccc(S(=O)(=O)N3CCCC3)cc2)sc2cc(F)ccc21 -1.61%
CCc1ccccc1NCc1nnc2n1CCCCC2 -8.06%
O=C1COc2cc(S(=O)(=O)CCC(=O)N3CCN(c4ccccc4F)CC3)c(Cl)cc2N1 -22.8%
Cc1ccc(-c2nnc(SCC(=O)c3ccc(Cl)cc3)n2-c2ccccc2)cc1 -13.1%
CCOc1ccccc1NC(=O)C1CCN(S(=O)(=O)c2cc(Br)cc3c2N(C(C)=O)CC3)CC1 11.2%
COc1cccc(CN2CCCN(CC(=O)Nc3ccc4c(c3)OCCO4)S2(=O)=O)c1 -1.91%
COc1cccc(N(Cc2nnc3n2CCCCC3)C(=O)Nc2ccccc2)c1 -17.2%
Cc1nc2nc(NC(=O)c3ccc(C(C)(C)C)cc3)[nH]n2c(=O)c1Cl -1.98%
CCN(CC)CCOC(=O)C(Cc1cccc2ccccc12)CC1CCCO1 (configuration not stated) -4.03%
CCOc1ccc(CNC(=O)c2ccc3c(c2)N(CC)CCS3)cc1 -3.27%
CCCCOc1ccc(C(=O)NCCc2sc(-c3ccc(OC)c(OC)c3)nc2C)cc1 -30.8%
O=C(Nc1cccc(O)c1)c1cc2nc(-c3ccc(Br)cc3)cc(C(F)(F)F)n2n1 -13.7%
COc1ccc(N2CCN(C(=O)CSc3c4c(nc5ccc(Cl)cc35)CCCC4)CC2)cc1 -24.3%
COc1ccc(CN(C)c2ccc(-c3nc(-c4ccccc4)no3)cc2[N+](=O)[O-])cc1 38.5%
COc1cccc(CCNC(=O)c2cnc3sc(N4CCCCCC4)nn3c2=O)c1 -9.84%
CCOC(=O)OCC/C(SC(=O)OCC)=C(\C)N(C=O)Cc1cnc(C)nc1N -3.34%
Cc1ccc(-n2nc3c(=O)n(CC(=O)NC(C)C)nc(C)c3c2C)cc1 -4.1%
CCC(CC)C(=O)Nc1ccc2nc(SCc3ccccc3)sc2c1 -21.6%
COc1ccc2c(CC(=O)Nc3ccc(C)cc3)coc2c1 2.82%
CS(=O)(=O)c1ncc(Cl)c(C(=O)Nc2c(C(=O)Nc3ccccc3)oc3ccccc23)n1 -12.8%
CCN(C(=O)CSc1nnc(-c2cc(OC)c(OC)c(OC)c2)o1)c1ccccc1 -25.4%
Clc1ccc(CCNc2nc3ccccc3c3nc(-c4ccccc4)nn23)cc1 -1.53%
Cc1ccc(C(=O)N(Cc2ccco2)Cc2ccco2)cc1 -0.218%
CCOc1cc(CNC(=O)c2ccccc2NC(=O)c2nsc3ccccc23)ccc1OC 20.4%
CCOc1ccc(NC(=O)Cn2cc(C(=O)c3cccs3)c3ccccc32)cc1 -15.8%
CCOc1cccc(CC(=O)NCc2ccc3c(c2)CCN3C(=O)c2ccc(F)cc2)c1OCC -16%
CC1(C)S[C@@H]2[C@H](NC(=O)C(C(=O)O)c3ccccc3)C(=O)N2[C@H]1C(=O)O (some centres not stated) -1.56%
COc1cccc(-c2nc3c(c(SCc4ccccc4)n2)Cc2c(CO)cnc(C)c2O3)c1 2.54%
NC(=O)c1cc(S(=O)(=O)NCc2ccccc2)cs1 -16.8%
CCCn1c(=O)n(-c2ccccc2)c(=O)c2sc3ccccc3c21 -20.5%
CN(C(=O)CCNC(=O)Cn1cnc2ccccc2c1=O)c1ccccc1F -2.9%
C=CCc1c(C)nc2nc(SCC(=O)Nc3ccccc3CC)nn2c1C -1.16%
CCOC(=O)CSc1nc2cc3c(cc2c(=O)n1CCCC(=O)NCc1ccc2c(c1)OCO2)OCO3 -17.8%
C=Cc1ccc(CSc2nc(-c3ccc(OC)cc3)nc3c2Cc2c(CO)cnc(C)c2O3)cc1 -14.5%
CC(C)Cc1nn2c(=O)cc(COC(=O)c3cccc(NC(=O)CCc4ccccc4)c3)nc2s1 -5.94%
COc1ccccc1C(=O)Nc1nc2ccc(S(=O)(=O)N3CCCC3)cc2s1 -14.4%
NCCc1nnc(SCc2ccc(Cl)cc2)o1 -1.51%
COc1ccc(C(=O)CN2C(=O)N(c3cc(C)cc(C)c3)S(=O)(=O)c3ccccc32)cc1 -25.1%
CCCCC(=O)Nc1cccc(OCc2cc(=O)n3ccccc3n2)c1 49.2%
Cc1ccc(Nc2c(-c3ccc(C)cc3)nc3cnccn23)cc1 -21.6%
COc1ccccc1CNC(=O)Cn1ncc2c(=O)oc3ccc(C)cc3c21 8.06%
Cc1ccccc1CS(=O)(=O)Cc1ccc(C(=O)NCCc2ccccc2)o1 -22.4%
CCOC(=O)c1ccc(Nc2c(-c3ccc(O)cc3)nc3nc[nH]n23)cc1 -11.3%
CCOC(=O)C1CCCN(c2ncnc3c2cnn3-c2ccc(C)c(Cl)c2)C1 (configuration not stated) -8.2%
Cc1ccc(NC(=O)CSc2nc3c(c(=O)[nH]2)CN(Cc2ccc4c(c2)OCO4)CC3)cc1C -8.61%
Cn1c(=O)c2c(SCC(=O)NCc3ccco3)nc(-c3ccccc3Cl)nc2n(C)c1=O -20.1%
CC(C)c1ccc(CNCCSc2nnnn2C)cc1 -6.3%
CC(=O)Nc1c(C)nn(-c2ccccc2)c1N1CCC(C(=O)Nc2cc(Cl)ccc2C)CC1 4.13%
CCOc1ccc(NC(=O)C(C)Sc2nnc3cc(C)c4ccccc4n23)cc1 (configuration not stated) -0.34%
C=C[C@@]1(C)CC(=O)[C@]2(O)[C@@]3(C)[C@@H](O)CCC(C)(C)[C@@H]3[C@H](O)[C@H](OC(C)=O)[C@@]2(C)O1 -1.54%
O=C(O)[C@@H]1CSCN1 -5.95%
Cc1cccc(NC(=O)C(=O)NCC(c2cccnc2)N2CCOCC2)c1 (configuration not stated) -7.66%
CCCOc1ccc(C2c3c(-c4ccccc4O)n[nH]c3C(=O)N2Cc2ccncc2)cc1OCC (configuration not stated) -23.9%
Cc1cc2nc3ccc(=[N+](C)C)cc-3sc2cc1N -11.8%
COc1ccc(C)cc1NC(=O)C(=O)NCCc1csc(-c2ccc(C)cc2)n1 6.08%
CCOC(=O)c1c(C)c(C(=O)NCCc2ccc(OC)cc2)c(C)n1C 2.76%
CCc1nn(CC(=O)Nc2cccc(C)c2C)c(=O)c2cc3sccc3n12 -1.52%
CN(C(=O)CSc1cn(CC(=O)N2CCCCC2)c2ccccc12)c1ccccc1 -5.68%
O=C(Cc1ccc(F)cc1)N1CCC(c2nc3c(nnn3Cc3ccc(Cl)cc3)c(=O)[nH]2)CC1 -26.5%
COc1ccc(-c2noc(C3CC(=O)N(c4cc(C)cc(C)c4)C3)n2)cc1 (configuration not stated) 0%
O=C(CCCCCN1C(=O)c2cccc3cccc(c23)C1=O)NO 176%
CCC(C)NC(=O)c1ccc2c(c1)N(Cc1ccccc1)C(=O)c1ccccc1S2(=O)=O (configuration not stated) -16%
CN1CCN(CCCNC(=O)c2cnn(-c3ccccc3)c2C2CCN(C(=O)OC(C)(C)C)CC2)CC1 0.675%
CCC(Oc1ccccc1)C(=O)Nc1ccccc1OCc1cc(=O)n2ccccc2n1 (configuration not stated) -5.2%
CC1=C(C(=O)Nc2ccc(Cl)cc2)C(C(C)C)n2nc(SCc3cccc(C)c3)nc2N1 (configuration not stated) 1.85%
Cc1c2cnn(-c3ccccc3)c(=O)c2c(C)n1CCCC(=O)Nc1ccc(F)cc1F -18.2%
CC(C)(C)C1CCc2onc(C(=O)Nc3sc4c(c3C(N)=O)CCCC4)c2C1 (configuration not stated) 5.62%

Potency, active:
Cc1cccc(N2CCN(S(=O)(=O)c3ccc4c(c3)C(C(C)C)C(=O)N4)CC2)c1C (configuration not stated) 12.6 µM
